Results taken from patent US9284335B2, “Substituted pyrido[3,2-e][1,2,4]triazolo[1,5-c]pyrimidines, pyrido[2,3-e][1,2,4]triazolo[1,5-c]pyrimidines and/or [1,2,4]triazolo[1,5-c]pteridines for treatment of central nervous system diseases and disorders” (DART NEUROSCIENCE (CAYMAN) LTD., priority 2012, dated 2016).

Target: full-length recombinant NH-terminal GST tagged human PDE1b enzyme (Homo sapiens, UniProt Q01064)
Assay: PDE1b inhibitory assay (IMAP TR-FRET)
Type: biochemical
Settings: negative log of half-maximal molar inhibitory concentration; FAM-cAMP 200 nM; reported as bins; read-out: PDE1b (pEC50) (converted)

Question: With `COc1ccc(Cn2c(=O)n3ncnc3c3cc(C(O)C(F)(F)F)cnc32)cc1` (stereo not shown) [Example 87, 6-(4-Methoxybenzyl)-9-(2,2,2-trifluoro-1-hydroxyethyl)pyrido[3,2-e][1,2,4]triazolo[1,5-c]pyrimidin-5(6H)-one] as the compound, how does the EC50 read?
Answer: 100 to 1000 nM

Question: Which EC50 does the source give for `C[C@@H]1CN(Cc2cnc3c(c2)c2ncnn2c(=O)n3Cc2cccc(C#N)c2)C[C@H](C)O1` [Example 97, 3-((9-(((2S,6R)-2,6-Dimethylmorpholino)methyl)-5-oxopyrido[3,2-e][1,2,4]triazolo[1,5-c]pyrimidin-6(5H)-yl)methyl)benzonitrile] here?
Answer: > 10000 nM

Question: For `COc1ccc(Cn2c(=O)n3ncnc3c3cc(CCN)cnc32)cc1` [Example 27, 9-(2-Aminoethyl)-6-(4-methoxybenzyl)pyrido[3,2-e][1,2,4]triazolo[1,5-c]pyrimidin-5(6H)-one], which EC50 is on record?
Answer: 1000 to 10000 nM

Question: How did the EC50 turn out when `COc1ccc(Cn2c(=O)n3ncnc3c3ncc(CN4C[C@@H](C)O[C@@H](C)C4)cc32)cc1` [Example 60, 8-(((2S,6R)-2,6-Dimethylmorpholino)methyl)-6-(4-methoxybenzyl)pyrido[2,3-e][1,2,4]triazolo[1,5-c]pyrimidin-5(6H)-one] was run?
Answer: 1000 to 10000 nM

Question: `CCOc1ccc(Cn2c(=O)n3ncnc3c3cc(CN4C[C@@H](C)O[C@@H](C)C4)cnc32)cc1` [Example 117, 9-(((2S,6R)-2,6-Dimethylmorpholino)methyl)-6-(4-ethoxybenzyl)pyrido[3,2-e][1,2,4]triazolo[1,5-c]pyrimidin-5(6H)-one] was tested. Which EC50 did it give?
Answer: 100 to 1000 nM

Question: Which EC50 does the source give for `COc1ccc(Cn2c(=O)n3ncnc3c3cc(CCNC4CCOCC4)cnc32)cc1` [Example 28, 6-(4-Methoxybenzyl)-9-(2-((tetrahydro-2H-pyran-4-yl)amino)ethyl)pyrido[3,2-e][1,2,4]triazolo[1,5-c]pyrimidin-5(6H)-one] here?
Answer: 1000 to 10000 nM

Question: `C[C@@H]1CN(Cc2cnc3c(c2)c2ncnn2c(=O)n3Cc2ccc(F)cc2F)C[C@H](C)O1` [Example 135] was tested. Which EC50 did it give?
Answer: 100 to 1000 nM

Question: `C[C@@H]1CN(Cc2cnc3c(c2)c2ncnn2c(=O)n3Cc2ccccc2OC(F)F)C[C@H](C)O1` [Example 113] was tested. Which EC50 did it give?
Answer: > 10000 nM

Question: For `C[C@@H]1CN(Cc2cnc3c(c2)c2ncnn2c(=O)n3Cc2cc(F)c(F)cc2F)C[C@H](C)O1` [Example 124, 9-(((2S,6R)-2,6-Dimethylmorpholino)methyl)-6-(2,4,5-trifluorobenzyl)pyrido[3,2-e][1,2,4]triazolo[1,5-c]pyrimidin-5(6H)-one], which EC50 is on record?
Answer: 100 to 1000 nM

Question: Which EC50 does the source give for `CCOc1ccc(Cn2c(=O)n3ncnc3c3cc(CN4C[C@@H](C)O[C@@H](C)C4)cnc32)c(F)c1F` [Example 155] here?
Answer: 1000 to 10000 nM
